Out of some 310,000 compounds screened, about 2,200 (0.71%) showed an effect of 50% or more. Effects have a minus sign here. Some of the results follow. Where no end group is shown, it is not given here.

Chain of human ether-à-go-go-related gene (hERG) potassium channel (Q12809 whole entry, looked up): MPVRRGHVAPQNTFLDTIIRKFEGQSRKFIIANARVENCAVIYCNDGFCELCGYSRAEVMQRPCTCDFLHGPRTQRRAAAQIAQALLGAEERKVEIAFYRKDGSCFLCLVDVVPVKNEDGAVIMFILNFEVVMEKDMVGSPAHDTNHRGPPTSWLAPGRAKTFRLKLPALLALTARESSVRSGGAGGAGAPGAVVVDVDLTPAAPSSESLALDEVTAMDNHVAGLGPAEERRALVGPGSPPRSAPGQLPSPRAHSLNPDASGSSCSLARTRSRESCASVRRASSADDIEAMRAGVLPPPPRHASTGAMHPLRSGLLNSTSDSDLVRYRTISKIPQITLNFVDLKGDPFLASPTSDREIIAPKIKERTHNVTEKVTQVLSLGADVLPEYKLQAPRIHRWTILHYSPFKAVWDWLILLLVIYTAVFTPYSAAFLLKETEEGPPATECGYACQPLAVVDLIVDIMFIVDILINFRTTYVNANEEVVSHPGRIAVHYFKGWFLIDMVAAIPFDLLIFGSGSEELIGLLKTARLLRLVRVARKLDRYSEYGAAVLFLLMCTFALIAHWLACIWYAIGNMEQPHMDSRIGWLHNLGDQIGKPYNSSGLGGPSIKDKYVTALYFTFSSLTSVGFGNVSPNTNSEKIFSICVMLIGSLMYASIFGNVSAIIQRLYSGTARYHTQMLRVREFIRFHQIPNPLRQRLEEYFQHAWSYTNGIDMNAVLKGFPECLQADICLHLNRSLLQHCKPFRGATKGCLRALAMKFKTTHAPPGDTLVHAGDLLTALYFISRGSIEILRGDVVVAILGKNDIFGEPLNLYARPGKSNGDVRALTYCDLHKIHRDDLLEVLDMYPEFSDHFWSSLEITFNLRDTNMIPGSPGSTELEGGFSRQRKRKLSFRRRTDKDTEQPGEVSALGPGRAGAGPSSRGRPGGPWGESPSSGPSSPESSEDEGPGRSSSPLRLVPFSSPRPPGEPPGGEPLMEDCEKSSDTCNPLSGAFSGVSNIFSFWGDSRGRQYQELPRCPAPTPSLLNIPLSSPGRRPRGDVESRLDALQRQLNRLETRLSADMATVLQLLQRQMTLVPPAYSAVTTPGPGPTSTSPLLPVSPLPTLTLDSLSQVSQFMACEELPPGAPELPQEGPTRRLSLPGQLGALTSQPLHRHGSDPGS

The experiment has as its target human ether-à-go-go-related gene (hERG) potassium channel (human, UniProt Q12809). The experiment is described as follows: primary screen, population patch clamp on CHO cells stably expressing hERG.
For the molecule `COc1ccccc1CNC(=O)COC(=O)c1cc(S(=O)(=O)N2CCOCC2)ccc1Cl`, the “hERG current change (%, negative = inhibition) at 1uM” value is on record as 2.74%.

Take `C=C1c2ccc(C)cc2NC(=O)N1c1ccccc1`: the “hERG current change (%, negative = inhibition) at 1uM” value was found to be 1.96%.

For `C=CCn1c(COc2cccc(C)c2C)nnc1SCC(=O)N1CCN(c2ccccc2)CC1`, the “hERG current change (%, negative = inhibition) at 1uM” value is -5.3%.

As for RKDVY, the “hERG current change (%, negative = inhibition) at 1uM” value stood at 17.6%.

As for `COc1cccc(CNC(=O)c2cccnc2Sc2ccc(Cl)cc2)c1`, the “hERG current change (%, negative = inhibition) at 1uM” value was 14.2%.

On to `CC(=O)Nc1cccc(C(=O)OC2CCOC2=O)c1` (stereo not shown), for which the “hERG current change (%, negative = inhibition) at 1uM” value is reported as 9.41%.

Turning to `CCc1ccc(NC(=O)NCCCN2CCCC2=O)cc1`, the “hERG current change (%, negative = inhibition) at 1uM” value is recorded as -5.54%.

For `COC(=O)c1ccc2c(=O)[nH]c(CSc3nc(C)cs3)nc2c1`, the “hERG current change (%, negative = inhibition) at 1uM” value worked out at 5.72%.

With `COc1ccc(N(CC(=O)NCc2ccco2)S(C)(=O)=O)c(OC)c1`, the “hERG current change (%, negative = inhibition) at 1uM” value came out at 7.65%.

Turning to `C[C@@H](C(=O)NCCCCCC(=O)O)n1nnc2ccccc2c1=O`, the “hERG current change (%, negative = inhibition) at 1uM” value worked out at 7.31%.

Consider `O=C1C=Cc2ccccc2/C1=C/c1[nH]c(=O)[nH]c1O`, for which the “hERG current change (%, negative = inhibition) at 1uM” value came to 10.3%.

As to `CC(Oc1ccc(-c2ccccc2)c(F)c1)c1ccn(S(=O)(=O)c2ccc(F)cc2)n1` (stereo not shown), the “hERG current change (%, negative = inhibition) at 1uM” value was 10.5%.

Regarding `CC(/C=N\NC(=O)Cn1cncn1)=C/c1ccc(C(C)C)cc1`, the “hERG current change (%, negative = inhibition) at 1uM” value came out at 2.15%.

Regarding `CCOc1cc(CNCCN(C)C)c(Cl)cc1OCC(=O)NCCc1ccccc1.Cl`, the “hERG current change (%, negative = inhibition) at 1uM” value is recorded as -6.4%.

As to `CC(C)C(NS(=O)(=O)c1cccc2nsnc12)C(=O)NCc1ccco1` (stereo not shown), the “hERG current change (%, negative = inhibition) at 1uM” value is 10.8%.

For the molecule `O=C(NNC(=S)NCc1ccc(Cl)cc1)c1ccc(Br)o1`, the “hERG current change (%, negative = inhibition) at 1uM” value is 19.6%.

Turning to `Cc1ccc(S(=O)(=O)/N=C(\CN2CCOCC2)N2CCOCC2)cc1`, the “hERG current change (%, negative = inhibition) at 1uM” value is reported as 23.3%.

As to `CN(CC(=O)NCC1CCCCC1)S(=O)(=O)c1ccc(F)cc1`, the “hERG current change (%, negative = inhibition) at 1uM” value came to 11.1%.

As to `O=C(Nc1cn(-c2ccccc2)nc1-c1ccccc1)c1ccccc1`, the “hERG current change (%, negative = inhibition) at 1uM” value was found to be 7.18%.

Turning to `CC(=O)N1CCC(O)(c2cccc(C(F)(F)F)c2)CC1`, the “hERG current change (%, negative = inhibition) at 1uM” value worked out at 8.78%.

With `CCOC(=O)C(=O)c1csc(NC(=O)COc2ccc(N(C)S(=O)(=O)c3ccc(F)cc3)cc2)n1`, the “hERG current change (%, negative = inhibition) at 1uM” value came to 17%.

With `CN(Cc1c(F)cccc1Cl)C(=O)c1ccc(NS(=O)(=O)c2ccc3[nH]c(=O)[nH]c3c2)cc1`, the “hERG current change (%, negative = inhibition) at 1uM” value is given as -4.45%.

For `CCN1CCN(c2cc(C)nc(-c3ccccc3O)n2)CC1`, the “hERG current change (%, negative = inhibition) at 1uM” value is given as -14.7%.

As for `CC1C(=O)NN=C1C(=O)N/N=C\c1ccc(O)cc1O` (stereo not shown), the “hERG current change (%, negative = inhibition) at 1uM” value is reported as 4.03%.

As to `O=C(C[n+]1cccc(CNC(=O)c2ccc(OC(F)F)cc2)c1)Nc1ccc(SC(F)F)cc1.[Cl-]`, the “hERG current change (%, negative = inhibition) at 1uM” value is on record as -3.5%.

`C/C(=N\NC(=O)COc1ccc(C(C)(C)C)cc1)c1ccc2c(c1)OCCO2`: the “hERG current change (%, negative = inhibition) at 1uM” value is 15.3%.

Take `O=C(CCc1nc2ccccc2c(=O)[nH]1)Nc1cccc(S(=O)(=O)N2CCOCC2)c1`: the “hERG current change (%, negative = inhibition) at 1uM” value is listed as -4.92%.

As to `CC(C)OC(=O)CN1C(=O)c2ccccc2C1=O`, the “hERG current change (%, negative = inhibition) at 1uM” value is 12.6%.

For the molecule `COc1cccc(NC(=O)Nc2ccc3c(c2)N(C)C(=O)CS3)c1`, the “hERG current change (%, negative = inhibition) at 1uM” value came to 12.6%.

With `N#CC1=C(SCC(=O)Nc2ccc(C(=O)O)cc2)NC(=O)CC1c1ccco1` (stereo not shown), the “hERG current change (%, negative = inhibition) at 1uM” value is given as 4.7%.

With `CCOC(=O)Cc1csc(SCn2nnc3ccccc3c2=O)n1`, the “hERG current change (%, negative = inhibition) at 1uM” value was 9.45%.

With `Cc1ccc(-n2c(Cc3ccccc3)nnc2SCC(=O)NNC(=O)Cc2ccccc2)cc1`, the “hERG current change (%, negative = inhibition) at 1uM” value came out at 11.8%.

For `O=c1c2c3nc4ccccc4nc3n(/N=C/c3ccncc3)c2ncn1-c1ccccc1`, the “hERG current change (%, negative = inhibition) at 1uM” value was 7.9%.

In the case of `COc1ccc(-n2nc(C(=O)N(C)C3CCCCC3)c3ccccc3c2=O)c(OC)c1`, the “hERG current change (%, negative = inhibition) at 1uM” value was 10.6%.

As for `O=c1cccccc1NN=C1CCCCC1`, the “hERG current change (%, negative = inhibition) at 1uM” value worked out at 6.1%.

Take `CCOc1cc(/C=N/NC(=O)NN(C)c2ncc(C(F)(F)F)cc2Cl)ccc1O`: the “hERG current change (%, negative = inhibition) at 1uM” value is given as -3.15%.

Take `COC(=O)c1[nH]nc2c1C(=O)N(Cc1ccccc1)C2=O`: the “hERG current change (%, negative = inhibition) at 1uM” value came out at 11.3%.

Take `NS(=O)(=O)c1ccc(CCNCC(=O)NCc2ccccc2Cl)cc1.O=C(O)C(=O)O`: the “hERG current change (%, negative = inhibition) at 1uM” value came out at 4.91%.

Regarding `FC(F)(F)c1cc(-c2cccs2)n[nH]1`, the “hERG current change (%, negative = inhibition) at 1uM” value is recorded as 11.5%.

Regarding `O=C1CN(C(=O)COC(=O)CNC(=O)c2ccc(Cl)cc2)c2ccccc2N1`, the “hERG current change (%, negative = inhibition) at 1uM” value is 3.33%.

For `Cc1ccc([C@@H]2[C@@H]3C(=O)N(c4ccccc4)C(=O)[C@@H]3[C@]3(C)C(=O)N(Cc4ccccc4)CC(=O)N23)o1`, the “hERG current change (%, negative = inhibition) at 1uM” value worked out at 11.9%.

As to `Cc1ccc(NS(=O)(=O)c2ccc(NC(=O)C(C)Sc3ccc(Cl)cc3)cc2)c(C)c1` (stereo not shown), the “hERG current change (%, negative = inhibition) at 1uM” value was -2.9%.

Turning to `CCCCN1C(=O)C(NC(C)=O)c2ccccc21` (stereo not shown), the “hERG current change (%, negative = inhibition) at 1uM” value turned out to be 10.4%.

For the molecule `CCCCN(C(=O)CSc1n[nH]c(-c2ccc(C)cc2)n1)c1c(N)n(CCCC)c(=O)[nH]c1=O`, the “hERG current change (%, negative = inhibition) at 1uM” value is reported as 7.86%.

Regarding `COc1ccc(-c2c(C)nn3c(N4CCC5(CC4)OCCO5)cc(C)nc23)cc1OC`, the “hERG current change (%, negative = inhibition) at 1uM” value is on record as 5.14%.

On to `Cc1ccc(CN(C)C(=O)CN2C(=O)NC3(CCCc4ccccc43)C2=O)c(C)c1` (stereo not shown), for which the “hERG current change (%, negative = inhibition) at 1uM” value is recorded as 2.02%.

For `N#C/C(=C(/O)CN1CCCCC1)c1nc(-c2ccc(Cl)cc2)cs1`, the “hERG current change (%, negative = inhibition) at 1uM” value was 2.77%.

Take `Cc1cc(Oc2ccc(OCC(N)=O)nn2)nc(Cl)n1`: the “hERG current change (%, negative = inhibition) at 1uM” value is 5.91%.

`O=C(Nc1ccc(F)cc1)N1CCN(c2ncccn2)CC1`: the “hERG current change (%, negative = inhibition) at 1uM” value is 9.35%.

For the molecule `O=C(OCC(=O)c1ccc([N+](=O)[O-])cc1)/C(=C\c1ccc(Cl)cc1)NC(=O)c1ccccc1`, the “hERG current change (%, negative = inhibition) at 1uM” value is on record as -6.52%.

For `COc1ccc(C(=O)NCCc2nnc3ccc(SCC(=O)Nc4ccccc4F)nn23)cc1`, the “hERG current change (%, negative = inhibition) at 1uM” value amounted to 11.4%.

`CC(C)S(=O)(=O)c1nsc2nc(=O)c(/C=C3\C=Nc4ccccc43)c(N)n12`: the “hERG current change (%, negative = inhibition) at 1uM” value came out at 10.3%.

`CC(NC(=O)C(C)(C)C)C(c1cccs1)N1CCOCC1` (stereo not shown): the “hERG current change (%, negative = inhibition) at 1uM” value was determined as 3.09%.

Take `COC(=O)c1ccc(/C=N/Nc2nc3ccccc3[nH]2)cc1`: the “hERG current change (%, negative = inhibition) at 1uM” value amounted to 3.9%.

Consider `CC(=O)c1cc(C(=O)N2CCCC(CCC(=O)N(C)CCc3ccccn3)C2)cs1` (stereo not shown), for which the “hERG current change (%, negative = inhibition) at 1uM” value turned out to be 9.12%.

For the origin of these results see PMC4336329 (PLoS ONE, 2015).
